# Some of the results follow.
# B1: PpFlo3 (Pichia pastoris) (protein)
# chain: MGSSHHHHHHSSGLVPRGSHMQESGNGTTSDTAYACDIGATPFDGFNATIYQYQASDDNSIQDPVFMSTGYLQRNQLHSTTGVTNPGFNIFTAGVATTTLYGIPNVNYQNMLLELKGYFRADASGNYGLSLRNIDDSAILFFGRETAFECCNENLIPLDEAPTDYSLFTIKEGEASTNPDSYTYTQYLEAGRYYPVRTFFANIRTRAVFNFTMTLPDGSELTDFQNYIFQFGALNQ
# Legend:
# Assay in all cases: glycan array binding signal (z-score within array); higher = stronger binding
# Settings in all cases: glycan notation: IUPAC condensed, linker removed
# [1] = biological target: Man(a1-2)Man(a1-3)[Man(a1-6)]Man(a1-6)[Man(a1-2)Man(a1-3)]Man(b1-4)GlcNAc(b1-4)GlcNAc
# Summary of the method: (§1)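 Glycan array binding is given as a within-array Z-score, which can be read as non-binding when negative. The arrays, 3228 of them, came from the Consortium for Functional Glycomics database and were retained only where the protein sequence was available. Z-scores were averaged across arrays of the same protein sequence at different concentrations or buffers and across linkers.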
# [2] = biological target: Man(a1-2)Man(a1-6)[Man(a1-3)]Man(a1-6)[Man(a1-2)Man(a1-2)Man(a1-3)]Man
# Summary of the method: as §1
# [3] = biological target: Man(a1-2)Man(a1-6)[Man(a1-3)]Man(a1-6)[Man(a1-2)Man(a1-2)Man(a1-3)]Man(b1-4)GlcNAc(b1-4)GlcNAc
# Summary of the method: as §1
# [4] = biological target: Man(a1-3)[Man(a1-6)]Man
# Summary of the method: as §1
# [5] = biological target: Man(a1-3)[Man(a1-6)]Man(a1-6)[Man(a1-2)Man(a1-3)]Man(b1-4)GlcNAc(b1-4)GlcNAc
# Summary of the method: as §1
# [6] = biological target: Man(a1-3)[Man(a1-6)]Man(a1-6)[Man(a1-3)]Man
# Summary of the method: as §1
# [7] = biological target: Man(a1-3)[Man(a1-6)]Man(a1-6)[Man(a1-3)]Man(b1-4)GlcNAc(b1-4)GlcNAc
# Summary of the method: as §1
# [8] = biological target: Man(a1-3)[Man(a1-6)]Man(b1-4)GlcNAc(b1-4)GlcNAc
# Summary of the method: as §1
# [9] = biological target: Man(a1-6)Man
# Summary of the method: as §1
# [10] = biological target: Man(b1-4)GlcNAc
# Summary of the method: as §1
# [11] = biological target: Neu5Ac(a2-3)Gal
# Summary of the method: as §1
# [12] = biological target: Neu5Ac(a2-3)Gal(b1-3)GalNAc
# Summary of the method: as §1
# [13] = biological target: Neu5Ac(a2-3)Gal(b1-3)GalNAc(b1-3)Gal(a1-4)Gal(b1-4)Glc
# Summary of the method: as §1
# [14] = biological target: Neu5Ac(a2-3)Gal(b1-3)GalNAc(b1-4)[Neu5Ac(a2-3)]Gal(b1-4)Glc
# Summary of the method: as §1
# [15] = biological target: Neu5Ac(a2-3)Gal(b1-3)GalNAc(b1-4)[Neu5Ac(a2-8)Neu5Ac(a2-3)]Gal(b1-4)Glc
# Summary of the method: as §1
# [16] = biological target: Neu5Ac(a2-3)Gal(b1-3)GalNAc6S
# Summary of the method: as §1
# [17] = biological target: Neu5Ac(a2-3)Gal(b1-3)GlcNAc
# Summary of the method: as §1
# [18] = biological target: Neu5Ac(a2-3)Gal(b1-3)GlcNAc(b1-3)Gal(b1-3)GlcNAc
# Summary of the method: as §1
# [19] = biological target: Neu5Ac(a2-3)Gal(b1-3)GlcNAc(b1-3)Gal(b1-4)GlcNAc
# Summary of the method: as §1
# [20] = biological target: Neu5Ac(a2-3)Gal(b1-3)GlcNAc(b1-3)GalNAc
# Summary of the method: as §1
# [21] = biological target: Neu5Ac(a2-3)Gal(b1-3)GlcNAc6S
# Summary of the method: as §1
# [22] = biological target: Neu5Ac(a2-3)Gal(b1-3)[Fuc(a1-4)]GlcNAc
# Summary of the method: as §1
# [23] = biological target: Neu5Ac(a2-3)Gal(b1-3)[Fuc(a1-4)]GlcNAc(b1-3)Gal(b1-3)[Fuc(a1-4)]GlcNAc
# Summary of the method: as §1
# [24] = biological target: Neu5Ac(a2-3)Gal(b1-3)[Fuc(a1-4)]GlcNAc(b1-3)Gal(b1-4)[Fuc(a1-3)]GlcNAc
# Summary of the method: as §1
# [25] = biological target: Neu5Ac(a2-3)Gal(b1-3)[Neu5Ac(a2-3)Gal(b1-4)]GlcNAc
# Summary of the method: as §1
# [26] = biological target: Neu5Ac(a2-3)Gal(b1-3)[Neu5Ac(a2-6)]GalNAc
# Summary of the method: as §1
# [27] = biological target: Neu5Ac(a2-3)Gal(b1-4)Glc
# Summary of the method: as §1
# [28] = biological target: Neu5Ac(a2-3)Gal(b1-4)GlcNAc
# Summary of the method: as §1
# [29] = biological target: Neu5Ac(a2-3)Gal(b1-4)GlcNAc(b1-2)Man(a1-3)[GlcNAc(b1-2)Man(b1-4)GlcNAc(b1-2)Man(a1-6)]Man(b1-4)GlcNAc(b1-4)GlcNAc
# Summary of the method: as §1
# [30] = biological target: Neu5Ac(a2-3)Gal(b1-4)GlcNAc(b1-2)Man(a1-3)[Neu5Ac(a2-6)Gal(b1-4)GlcNAc(b1-2)Man(a1-6)]Man(b1-4)GlcNAc(b1-4)GlcNAc
# Summary of the method: as §1
# [31] = biological target: Neu5Ac(a2-3)Gal(b1-4)GlcNAc(b1-3)Gal
# Summary of the method: as §1
# [32] = biological target: Neu5Ac(a2-3)Gal(b1-4)GlcNAc(b1-3)Gal(b1-3)GlcNAc
# Summary of the method: as §1
# [33] = biological target: Neu5Ac(a2-3)Gal(b1-4)GlcNAc(b1-3)Gal(b1-4)GlcNAc
# Summary of the method: as §1
# [34] = biological target: Neu5Ac(a2-3)Gal(b1-4)GlcNAc(b1-3)Gal(b1-4)GlcNAc(b1-3)Gal(b1-4)GlcNAc
# Summary of the method: as §1
# [35] = biological target: Neu5Ac(a2-3)Gal(b1-4)GlcNAc(b1-3)Gal(b1-4)[Fuc(a1-3)]GlcNAc
# Summary of the method: as §1
# [36] = biological target: Neu5Ac(a2-3)Gal(b1-4)GlcNAc(b1-3)GalNAc
# Summary of the method: as §1
# [37] = biological target: Neu5Ac(a2-3)Gal(b1-4)GlcNAc(b1-6)[Gal(b1-3)]GalNAc
# Summary of the method: as §1
# [38] = biological target: Neu5Ac(a2-3)Gal(b1-4)GlcNAc(b1-6)[Neu5Ac(a2-3)Gal(b1-3)]GalNAc
# Summary of the method: as §1
# [39] = biological target: Neu5Ac(a2-3)Gal(b1-4)GlcNAc6S
# Summary of the method: as §1
# [40] = biological target: Neu5Ac(a2-3)Gal(b1-4)[Fuc(a1-3)]GlcNAc
# Summary of the method: as §1
# [41] = biological target: Neu5Ac(a2-3)Gal(b1-4)[Fuc(a1-3)]GlcNAc(b1-3)Gal
# Summary of the method: as §1
# [42] = biological target: Neu5Ac(a2-3)Gal(b1-4)[Fuc(a1-3)]GlcNAc(b1-3)Gal(b1-4)GlcNAc
# Summary of the method: as §1
# [43] = biological target: Neu5Ac(a2-3)Gal(b1-4)[Fuc(a1-3)]GlcNAc(b1-3)Gal(b1-4)[Fuc(a1-3)]GlcNAc(b1-3)Gal(b1-4)[Fuc(a1-3)]GlcNAc
# Summary of the method: as §1
# [44] = biological target: Neu5Ac(a2-3)Gal(b1-4)[Fuc(a1-3)]GlcNAc(b1-3)GalNAc
# Summary of the method: as §1
# [45] = biological target: Neu5Ac(a2-3)Gal(b1-4)[Fuc(a1-3)]GlcNAc(b1-6)[Gal(b1-3)]GalNAc
# Summary of the method: as §1
# [46] = biological target: Neu5Ac(a2-3)Gal(b1-4)[Fuc(a1-3)]GlcNAc6S
# Summary of the method: as §1
# [47] = biological target: Neu5Ac(a2-3)Gal6S(b1-4)GlcNAc
# Summary of the method: as §1
# [48] = biological target: Neu5Ac(a2-3)Gal6S(b1-4)[Fuc(a1-3)]GlcNAc
# Summary of the method: as §1
# [49] = biological target: Neu5Ac(a2-3)GalNAc
# Summary of the method: as §1
# [50] = biological target: Neu5Ac(a2-3)GalNAc(b1-4)GlcNAc
# Summary of the method: as §1
binder,measurement,setting,value
B1,glycan array binding signal (z-score),[1],-0.272
same,glycan array binding signal (z-score),[2],-0.282
same,glycan array binding signal (z-score),[3],-0.271
same,glycan array binding signal (z-score),[4],-0.27
same,glycan array binding signal (z-score),[5],-0.257
same,glycan array binding signal (z-score),[6],-0.274
same,glycan array binding signal (z-score),[7],-0.319
same,glycan array binding signal (z-score),[8],0.342
same,glycan array binding signal (z-score),[9],-0.283
same,glycan array binding signal (z-score),[10],-0.282
same,glycan array binding signal (z-score),[11],-0.283
same,glycan array binding signal (z-score),[12],-0.265
same,glycan array binding signal (z-score),[13],-0.262
same,glycan array binding signal (z-score),[14],-0.261
same,glycan array binding signal (z-score),[15],-0.276
same,glycan array binding signal (z-score),[16],-0.29
same,glycan array binding signal (z-score),[17],-0.232
same,glycan array binding signal (z-score),[18],-0.252
same,glycan array binding signal (z-score),[19],-0.254
same,glycan array binding signal (z-score),[20],-0.223
same,glycan array binding signal (z-score),[21],-0.301
same,glycan array binding signal (z-score),[22],-0.282
same,glycan array binding signal (z-score),[23],-0.27
same,glycan array binding signal (z-score),[24],-0.308
same,glycan array binding signal (z-score),[25],-0.271
same,glycan array binding signal (z-score),[26],-0.211
same,glycan array binding signal (z-score),[27],-0.285
same,glycan array binding signal (z-score),[28],-0.264
same,glycan array binding signal (z-score),[29],-0.209
same,glycan array binding signal (z-score),[30],-0.296
same,glycan array binding signal (z-score),[31],-0.304
same,glycan array binding signal (z-score),[32],-0.115
same,glycan array binding signal (z-score),[33],-0.273
same,glycan array binding signal (z-score),[34],-0.167
same,glycan array binding signal (z-score),[35],-0.271
same,glycan array binding signal (z-score),[36],-0.213
same,glycan array binding signal (z-score),[37],-0.281
same,glycan array binding signal (z-score),[38],-0.263
same,glycan array binding signal (z-score),[39],-0.261
same,glycan array binding signal (z-score),[40],-0.23
same,glycan array binding signal (z-score),[41],-0.27
same,glycan array binding signal (z-score),[42],-0.251
same,glycan array binding signal (z-score),[43],-0.266
same,glycan array binding signal (z-score),[44],-0.286
same,glycan array binding signal (z-score),[45],-0.285
same,glycan array binding signal (z-score),[46],-0.27
same,glycan array binding signal (z-score),[47],-0.259
same,glycan array binding signal (z-score),[48],-0.268
same,glycan array binding signal (z-score),[49],-0.083
same,glycan array binding signal (z-score),[50],-0.282

# — the supplement of paper PMC8728848
